Hit rate of the full screen: of about 360,000 compounds, about 660 (0.18%) were called active. Inconclusive results, whose numbers are uncertain, are shown with a selection of clear calls. The call rests on the fitted dose curve; in most records, active means well fitted inhibition curve with a large enough effect; inconclusive means small, poorly fitted or top-dose-only effect; inactive means no such curve, though single readings can be large or run the other way. Potencies of inconclusive entries are left out as doubtful fits.
Biological target: Rap guanine nucleotide exchange factor 4 (Homo sapiens) (UniProt Q8WZA2)
UniProt Q8WZA2, sequence (Q8WZA2 whole entry, looked up): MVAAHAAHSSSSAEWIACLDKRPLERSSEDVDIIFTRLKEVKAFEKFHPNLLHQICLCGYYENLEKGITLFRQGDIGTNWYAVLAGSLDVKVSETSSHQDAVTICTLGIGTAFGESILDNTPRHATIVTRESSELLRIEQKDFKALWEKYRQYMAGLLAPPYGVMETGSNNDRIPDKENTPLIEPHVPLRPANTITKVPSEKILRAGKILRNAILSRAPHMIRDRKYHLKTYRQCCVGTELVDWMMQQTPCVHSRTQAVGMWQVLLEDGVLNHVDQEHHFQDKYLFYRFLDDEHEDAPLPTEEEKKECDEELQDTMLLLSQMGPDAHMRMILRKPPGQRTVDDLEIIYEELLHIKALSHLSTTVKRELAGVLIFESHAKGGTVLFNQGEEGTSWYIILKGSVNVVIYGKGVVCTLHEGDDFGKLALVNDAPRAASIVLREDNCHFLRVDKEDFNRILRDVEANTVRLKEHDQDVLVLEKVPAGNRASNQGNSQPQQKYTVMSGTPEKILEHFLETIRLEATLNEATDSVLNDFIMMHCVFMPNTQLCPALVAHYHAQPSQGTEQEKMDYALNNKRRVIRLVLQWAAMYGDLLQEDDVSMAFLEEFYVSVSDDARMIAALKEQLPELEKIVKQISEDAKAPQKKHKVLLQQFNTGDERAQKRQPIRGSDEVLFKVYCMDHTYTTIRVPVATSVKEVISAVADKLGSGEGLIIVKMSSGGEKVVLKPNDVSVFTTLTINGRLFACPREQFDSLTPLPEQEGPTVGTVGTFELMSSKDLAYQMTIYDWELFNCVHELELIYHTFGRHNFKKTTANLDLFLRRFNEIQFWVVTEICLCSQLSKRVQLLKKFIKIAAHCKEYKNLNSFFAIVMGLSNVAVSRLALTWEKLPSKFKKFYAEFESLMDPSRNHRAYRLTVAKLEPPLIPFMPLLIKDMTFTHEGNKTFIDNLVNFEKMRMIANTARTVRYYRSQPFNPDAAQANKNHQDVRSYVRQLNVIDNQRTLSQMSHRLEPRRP
Test: qHTS for Antagonist of cAMP-regulated guanine nucleotide exchange factor 2 (EPAC2): primary screen; further: nearly all actives have a fitted effect of over 45% in size
Settings: EPAC2 GEF exchange of Rap1B-BODIPY-GDP, fluorescence; series mostly up to 114 µM
Potency means the concentration at half of the fitted maximal effect; tags describe the fitted curve by direction and shape.

Compound | Potency
CN(C)CCNC(=O)c1cccc(-c2cnc3c(NC=O)cc(-c4cccc(C(F)(F)F)c4)cn23)c1 | inconclusive [inhibitor, full curve]
Cc1ccc(C(=O)CSc2ccccn2)cc1 | inactive
O=C(C1CCC(C(=O)N2CCc3ccccc32)CC1)N1CCc2ccccc21 (stereo not given) | inactive
CCC(CC)C(=O)N1N=C(c2ccc(NS(C)(=O)=O)cc2)CC1c1ccccc1 (stereo not given) | inconclusive [inhibitor, partial curve, poor fit]
COc1ccc(CN(C(=O)c2ccco2)c2ccc(Br)cc2)cc1OC | inconclusive [inhibitor, partial curve]
NS(=O)(=O)c1cccc(NC(=O)COC(=O)c2ccccc2SCC(=O)N2CCCC2)c1 | inconclusive [inhibitor, partial curve, poor fit]
CCOC(=O)c1sc(NC(=O)C(C)(C)C)cc1C | inactive
Cn1c(SCC(=O)c2cc(Cl)c(Cl)s2)nnc1-c1ccco1 | inactive
Nc1ccc(Oc2ccccc2-c2ccccc2)cc1 | inconclusive [inhibitor, single point]
Cc1cc(C(=O)COC(=O)C2=COCCO2)c(C)n1-c1cccc(F)c1 | inconclusive [inhibitor, single point]
Cc1c(Cc2ccccc2)c(=O)oc2c(C)c(OC(C)C(=O)N[C@@H](Cc3ccccc3)C(=O)O)ccc12 (stereo not given in full) | inconclusive [inhibitor, partial curve]
CCc1oc(C(=O)O)cc1CN(CC)CC | inactive
CCOc1ccc(NC(=O)CCC(=O)N/N=C/c2ccc3c(c2)OCO3)cc1 | inactive
COC(=O)[C@@H](CC(C)C)NS(=O)(=O)N(Cc1ccccc1)[C@@H](CC(C)C)C(=O)OC | inconclusive [inhibitor, full curve, poor fit]
COc1ccccc1[C@]1(C)ON(c2ccccc2C(F)(F)F)C1=O | inconclusive [inhibitor, full curve]
O=C1[C@H](c2ccccc2)[C@@H](c2ccccc2)N1c1ccncc1 | inconclusive [inhibitor, full curve]
COc1ccc2ccccc2c1/C=N/Nc1cccc(C(=O)O)c1 | inconclusive [inhibitor, partial curve]
CC(C)(C)SCCNS(=O)(=O)c1ccc2ccccc2c1 | inconclusive [inhibitor, partial curve]
COc1ccc(-c2nc3cnccn3c2Nc2ccc(C)cc2)cc1 | inconclusive [inhibitor, partial curve]
Clc1cccc(Cl)c1/C=C/c1ccn[nH]1 | inconclusive [inhibitor, partial curve]
CCCCCOc1ccc(C(=O)CCC(=O)NC(C)c2ccc(S(N)(=O)=O)cc2)cc1 (stereo not given) | inconclusive [inhibitor, partial curve]
N#CCCN1CCN(C(=S)c2ccc(-c3cccc(Cl)c3)o2)CC1 | inactive
O=C(Nc1ccc2ccccc2c1)C(c1ccccc1F)n1c(=O)c(-c2cc3ccccc3[nH]2)nc2ccccc21 (stereo not given) | inactive
COc1cc(CCc2ccccc2)c(C(=O)O)c(O)c1C/C=C(/C)CCC=C(C)C | inconclusive [inhibitor, partial curve]

Compound | Potency
CC1(C)Cc2ccccc2-c2nc(NCCCO)[nH]c(=O)c21 | inconclusive [inhibitor, single point]
COc1ccc(NC(=O)c2ccc3c(SCC(=O)O)c4c(nc3c2)CCCC4)c(OC)c1 | inconclusive [inhibitor, partial curve]
COc1cc(-c2c(-c3ccsc3)sc3ccccc23)cc(OC)c1OC | inconclusive [inhibitor, full curve]
CC1C(=O)N2CCCc3cc(S(=O)(=O)NCCc4ccccc4)cc1c32 (stereo not given) | inactive
FC(F)(F)c1ccc(Cl)c(Nc2nnc(-c3ccncc3)s2)c1 | inconclusive [inhibitor, single point]
COc1ccc(-c2nc3ccc(Cl)cn3c2Cc2ccccc2C(F)(F)F)cc1OC | inconclusive [inhibitor, single point]
O=C(O)c1csc(N/N=C/c2ccc(Br)cc2)n1 | inactive
COC(=O)c1cc2oc(C)cc2n1CC(=O)N1CCCc2ccccc21 | inconclusive [inhibitor, partial curve]
Cc1c(C(=O)N2c3ccccc3CC2C)oc2ccccc12 (stereo not given) | inconclusive [inhibitor, full curve]
COC(=O)c1cc(OC)nc2ccc(Br)cc12 | inconclusive [inhibitor, full curve]
Clc1ccccc1N/N=C/c1ccc2c(c1)OCO2 | inactive
O=C(c1ccc(O)c(Br)c1)c1cc(Br)ccc1O | inconclusive [inhibitor, partial curve]
CCCCCCCCCCCCCCC(O)C[N+](C)(CCO)CCO (stereo not given) | inconclusive [inhibitor, partial curve]
NS(=O)(=O)c1cc(C(=O)Nc2ccc3c(c2)CCC3)ccc1Cl | inactive
CCSc1nc(-c2ccccc2)nc2c1CCCC2 | inconclusive [inhibitor, partial curve]
COc1ccc(CCn2c(O)cc3nn(-c4nc5ccccc5s4)c(=O)c-3c2C)cc1 | inactive
COc1ccc(OCc2cc(C(=O)N[C@H]3CCCCNC3=O)no2)c(Cl)c1 | inactive
C/C(Cn1cnc([N+](=O)[O-])n1)=N\NC(=O)c1cccc(F)c1 | inactive
Cc1ccc(Cl)cc1N1CCN(C(=O)C2CCN(S(=O)(=O)c3cccnc3)CC2)CC1 | inconclusive [inhibitor, partial curve]
COc1ccc(NC(=O)CCNC(=O)C2CCN(S(=O)(=O)c3ccccc3)CC2)cc1OC | inactive
CC(C)(C)c1ccccc1OCC(=O)Nc1ccccc1C(=O)NCc1cccnc1 | inconclusive [inhibitor, partial curve]
COc1ccc(C)cc1NC(=O)CNC(c1ccccc1)c1ccccc1 | inconclusive [inhibitor, partial curve]
CC(C)(C)[C@H](NC(=O)c1ccc(N)c(Cl)c1)C(=O)N1CCC[C@H]1C(=O)N[C@H](C#N)CC(=O)O | inactive
CC(C)CC(CO)N1CCN(C(=O)c2ccc(Cl)cc2)CCC1=O (stereo not given) | inactive

Compound | Potency
Cc1ccc(S(=O)(=O)N2CCN(Cc3ccccc3)CC2)cc1 | inactive
Cc1ccc2c(c1)C=CC(C#N)N2C(=O)c1ccccc1 (stereo not given) | inconclusive [inhibitor, partial curve]
Cc1cc(N)c2cc(NC(=O)/C=C/c3ccccc3Cl)ccc2n1 | inconclusive [inhibitor, partial curve]
COc1ccc(S(=O)(=O)Nc2ccc3c(c2)OCO3)cc1C | inconclusive [inhibitor, partial curve]
CCCCn1nnnc1C(CCc1ccccc1)N1CCN(C/C=C/c2ccccc2)CC1 (stereo not given) | inactive
O=C1ON=C(c2ccccc2)/C1=C/c1ccccc1 | inconclusive [inhibitor, partial curve]
O=S(=O)(c1ccc(SCc2ccccc2F)nc1)N1CCCC1 | inactive
COc1ccc(NC(=O)[C@@H]2O[C@H](CO)[C@H](O)[C@H](O)[C@H]2O)cc1F | inactive
C/C(=N\NC(=O)c1ccccc1OCCOc1ccccc1)c1ccccc1F | inconclusive [inhibitor, partial curve, poor fit]
CN(C)c1nc(C=C(C#N)C#N)c(Cl)n1-c1ccc(F)cc1 | inactive
COc1ccc(S(=O)(=O)N2CCC[C@H]2C(=O)N2CCC[C@H]2C(=O)N[C@@H](C)c2ccccc2)cc1C | inconclusive [inhibitor, partial curve]
Cc1cc(C)c(S(=O)(=O)Nc2ccccc2-c2ccccc2)c(C)c1 | inconclusive [inhibitor, partial curve]
Cn1cnnc1SCC(=O)N1CCc2ccccc2C1 | inconclusive [inhibitor, full curve]
COc1ccc(-c2cc(=O)oc3cc(OC(C)C(=O)NC(Cc4c[nH]c5ccc(O)cc45)C(=O)O)ccc23)cc1 (stereo not given) | inconclusive [inhibitor, full curve, poor fit]
C=CC(=O)N(CCC)C(c1ccccc1)c1ccccc1OC (stereo not given) | inconclusive [inhibitor, partial curve]
O=S(=O)(Nc1ccc2ccccc2c1)N1CCCCC1 | inconclusive [inhibitor, partial curve, poor fit]
Cc1ccc(N2C(=O)c3ccccc3C2Nc2ccccc2)nc1 (stereo not given) | inconclusive [inhibitor, partial curve]
CNC[C@H]1Oc2ccc(NC(=O)Nc3ccccc3)cc2CC(=O)N([C@H](C)CO)C[C@H]1C | inconclusive [inhibitor, single point]
Cn1nnnc1Sc1ncnc2scc(-c3ccccc3Cl)c12 | inconclusive [inhibitor, single point]
Cc1nn(-c2ccccc2)c(N2CCCC2)c1/C=C1\N=C(c2ccc(OC(C)C)cc2)OC1=O | inactive
O=C(NCCCCc1ccccc1)NC[C@@H]1CC[C@@H](Cc2ccc(-c3ccccc3)cc2)O1 | inconclusive [inhibitor, partial curve]
Cc1ccc(NS(=O)(=O)c2cccc3cccnc23)c(Cl)c1 | active: 28.2 µM
